Sequences with one replicate were seen in a single cluster, so their values are uncertain.

The values below come from the supplement of paper PMC10126150.

This data set has as its system ATP. Briefly: switch fluorescence ratio, 500 uM ATP over buffer (Cy3 cluster intensity, sum of 5 cycles each) (fold (ratio)); higher = stronger signal-on switching upon ATP binding; sequences stand for … in TCGTCGGCAGCGTCAGATGTGTATAAGAGACAGTTTTTTTTTTTTTTTTTTTTTTTTT…TC. The following applies: aptamer strand: ATP DNA aptamer (quencher-CACCTGGGGGAGTATTGCGGAGGAAGG + anchor), 100 nM annealed; ATP concentration: 500 uM; one replicate. The method in brief:
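Between each of five buffer/ATP cycles, the flow-cell was stripped with NaOH and re-annealed. Each cycle imaged Cy3-labelled switching-strand clusters, annealed to 100 nM quencher-labelled ATP aptamer on a modified Illumina MiSeq flow-cell, first in selection buffer and then after 15 min with 500 uM ATP at 22 °C. The fluorescence ratio is summed target-cycle over summed buffer-cycle Cy3 intensity per cluster, averaged per switch-domain sequence, with clusters outside 100-1000 RFU excluded.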
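Further: ATP exposure 15 min at 22 °C before imaging.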

Take TTTTCAGAGG: the switch fluorescence ratio was 1.01.

In the case of CTCTTGGATA, the switch fluorescence ratio amounted to 0.95.

For the sequence CGTGAGAGAC, the switch fluorescence ratio was 1.03. To TACATATGCC belongs 1.05. The value for AGCCATATCG was 0.979; that for GTGTGAGAAT was 1.04. For the sequence GCGCGCGTTT, the switch fluorescence ratio was determined as 0.954. With TTGGTAGGTT, the switch fluorescence ratio was 0.975. The value for AATCGCAATT was 2.39; that for ATTATGCTCG was 1.08; that for TATCGCGGGC was 1.96. To CGAAATAAGT belongs 0.991. To CACGTCACA belongs 1.66; to AATATCCGCG, 1.14; to ATACGAAGTT, 0.99. TAAGAAACAA: the switch fluorescence ratio amounted to 0.967. For the sequence TATAAGCGGC, the switch fluorescence ratio was 0.998. To ACGCTACGGG belongs 1.52; to TGCGCCAGAG, 1.04. Consider ACCGACGTGT, for which the switch fluorescence ratio worked out at 1.11.

As to CCCGTAGGGA, the switch fluorescence ratio came to 1.01. Consider ATTCGACGAC, for which the switch fluorescence ratio was 1.16. To AAATGGCACA belongs 1; to TGGTCACTGT, 0.993.

Consider CTACGGCATG, for which the switch fluorescence ratio amounted to 1.11.

In the case of ACGGCGTCCG, the switch fluorescence ratio came out at 0.98. On to GATCCAGGTG, for which the switch fluorescence ratio was found to be 5.81. With TTCTCTCCTA, the switch fluorescence ratio is 1.03.

As to ACCGCGCTGC, the switch fluorescence ratio stood at 1.54. For GGTAGAGTGG, the switch fluorescence ratio was found to be 1.04. For GTTCCAAGGG, the switch fluorescence ratio was 1.02. AACGGAGCTC: the switch fluorescence ratio was 1.24. In the case of CCTGGTTACT, the switch fluorescence ratio came out at 1.04. Take CGAACGGTGA: the switch fluorescence ratio came out at 1.05.

In the case of CTAAACCGGG, the switch fluorescence ratio was determined as 1.04.

With TCATTAACAT, the switch fluorescence ratio came to 0.978. To CGCTATAGTT belongs 1.22; to CGTCCCTTGG, 1.11; to ATCGTGGTGG, 0.968. To CGAGTAAGAG belongs 1.1; to CCACTAGCAT, 2.63; to ACGTTGACGT, 1.03. The value for GCTCGACCTA was 1.02; that for AAAGGAATCG was 1.02; that for ACCGTTTGCG was 0.974. Regarding AAAAGCGAAT, the switch fluorescence ratio is 0.981. To TTGTTTACAA belongs 1.06.

GGTGCATTCT: the switch fluorescence ratio was 1. As for GAGCCAGTAT, the switch fluorescence ratio was 1.02. To ATTTACCATG belongs 1.01; to ACGCTTTTTA, 0.992. As for CAATAAAGTC, the switch fluorescence ratio is 0.981. Consider TTTGCTAAGC, for which the switch fluorescence ratio worked out at 1.02. To GGCTTTTCCC belongs 1.02; to GAATCTAGGT, 1.15; to TGTCCCCC, 1.11. The value for CTATTCCCGG was 1.04.

Consider CTTCATAAGC, for which the switch fluorescence ratio is 1.1. To TGGGTATAAG belongs 0.993; to TTAAACTAGG, 1.02. With TTCAAGGAAC, the switch fluorescence ratio was 0.992. The value for AGGGCCCACT was 0.994; that for TAGGTATTG was 0.975; that for TGTACGCTCC was 1.28.

With TAATCAAATA, the switch fluorescence ratio was found to be 1.

As for CTTAAATACC, the switch fluorescence ratio was 1.07. To CGGACGTGTT belongs 1.12.
